This is one part of the list. These are enrichments in a pooled selection; single values are uncertain. Scores sum up all selected molecules that hold the word; the word was not tested alone.

IMP3 KH3-4, sequence (chain, as listed by the source): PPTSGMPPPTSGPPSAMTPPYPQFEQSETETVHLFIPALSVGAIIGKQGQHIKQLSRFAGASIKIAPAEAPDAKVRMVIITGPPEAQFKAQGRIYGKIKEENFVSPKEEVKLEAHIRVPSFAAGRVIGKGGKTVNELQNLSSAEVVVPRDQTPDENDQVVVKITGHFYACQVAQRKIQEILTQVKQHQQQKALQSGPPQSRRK

This test deals with IMP3 KH3-4. As to the kind of experiment: 6-mer SELEX enrichment z-score vs GST control; IMP3 is the RNA-binding protein IGF2BP3; higher = more enriched by binding. The note with it: construct: KH3-4 (377-579); SELEX round: R4. How it is done:
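SELEX-seq with GST-tagged IMP3 KH3-4 (Pro377-Lys579) and an N40 RNA pool, round 4. 6-mer z-score of sequence-tag enrichment normalised to the corresponding GST SELEX round; RNA k-mers written as DNA (T for U).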
Consider GCGACG, for which the “6-mer SELEX enrichment z-score” value was -0.864. Regarding TGTATG, the “6-mer SELEX enrichment z-score” value stood at 0.709. As for GTGGCT, the “6-mer SELEX enrichment z-score” value was 0.332.

As for CTCAGC, the “6-mer SELEX enrichment z-score” value was -1.08.

In the case of AATGCT, the “6-mer SELEX enrichment z-score” value was found to be 0.284. As to CTTACC, the “6-mer SELEX enrichment z-score” value was -1.01. With ATCTGC the figure was -0.154; with CTGCTA, 0.194; with GAAATA, 1.93.

For TTACTG, the “6-mer SELEX enrichment z-score” value came to 0.67. In the case of ACCCGC it was -2.02.

CAACAC: the “6-mer SELEX enrichment z-score” value is -0.461. In the case of AATGAG it was 0.054. With TAGGTT the figure was 0.365; with ATTCTC, 0.263; with GCAACT, -0.332. With ACAAAG the figure was 0.073; with GACGCG, -1.08; with CCTCGG, -0.682.

With ACGTTC, the “6-mer SELEX enrichment z-score” value was -0.502. In the case of TATGAC it was 0.743; in that of TTTTCA, 1.35; in that of CCCTCG, -1.34. Take CCACTG: the “6-mer SELEX enrichment z-score” value is -0.633.

For the sequence GCGAAA, the “6-mer SELEX enrichment z-score” value was -1.03. With CCTCGC the figure was -1.03; with TCCCGC, -0.982. In the case of CCATAC it was -0.251; in that of CAAGTT, -0.194. Take AGGGGC: the “6-mer SELEX enrichment z-score” value was found to be 1.44.

In the case of TGCATA, the “6-mer SELEX enrichment z-score” value was 0.606.

Turning to GATATA, the “6-mer SELEX enrichment z-score” value came out at 2.32. For the sequence GCTCAG, the “6-mer SELEX enrichment z-score” value was -0.248. In the case of AACTAT it was 1.8; in that of TAATGG, 0.997.

As to TTACAC, the “6-mer SELEX enrichment z-score” value was determined as 0.949. In the case of CAGACG it was -0.857. With GTCCAA the figure was -0.807; with TTTTAT, 1.75; with TGTACA, 0.314.

The record behind these values is the supplement of paper PMC6531468.
